# Reference: a collection of fitness landscapes (doi:10.1126/science.1257360)
# The other results are listed elsewhere or left out.
# B1: PhoQ; a variant is named by its letters at X, in order, P23837 (parent)
# chain: MKKLLRLFFPLSLRVRFLLATAAVVLVLSLAYGMVALIGYSVSFDKTTFRLLRGESNLFYTLAKWENNKLHVELPENIDKQSPTMTLIYDENGQLLWAQRDVPWLMKMIQPDWLKSNGFHEIEADVNDTSLLLSGDHSIQQQLQEVREDDDDAEMTHSVAVNVYPATSRMPKLTIVVVDTIPVELKSSYMVWSWFIYVLSANLLLVIPLLWVAAWWSLRPIEALAKEVRELEEHNRELLNPATTRELTSLVRNLNRLLKSERERYDKYRTTLTDLTHSLKTPLXXLQXXLRSLRSEKMSVSDAEPVMLEQISRISQQIGYYLHRASMRGGTLLSRELHPVAPLLDNLTSALNKVYQRKGVNISLDISPEISFVGEQNDFVEVMGNVLDNACKYCLEFVEISARQTDEHLYIVVEDDGPGIPLSKREVIFDRGQRVDTLRPGQGVGLAVAREITEQYEGKIVAGESMLGGARMEVIFGRQHSAPKDE
# Variants of: B1
# Assay: enrichment ratio after two sorts for PhoP signalling (ratio (wild type AVST 3.29)); higher = more functional
# Settings: with PhoP (E. coli)
row,Variant,enrichment ratio
1,WMRC,≤ 0.25
2,IMHA,≤ 0.25
3,ELKE,≤ 0.25
4,LGIY,≤ 0.25
5,ERCR,≤ 0.25
6,PQGV,≤ 0.25
7,QSIS,≤ 0.25
8,AMAS,10.9
9,PINQ,≤ 0.25
10,KEYN,≤ 0.25
11,DIWY,≤ 0.25
12,WSHH,≤ 0.25
13,QPIR,≤ 0.25
14,RESL,≤ 0.25
15,QMHP,≤ 0.25
16,SYMY,≤ 0.25
17,FNAS,≤ 0.25
18,WLAW,≤ 0.25
19,FDWH,≤ 0.25
20,WNNW,≤ 0.25
21,YYIN,≤ 0.25
22,MVHV,≤ 0.25
23,SGYY,≤ 0.25
24,MCWF,2.83
25,GPGP,≤ 0.25
26,DESH,≤ 0.25

row,Variant,enrichment ratio
1,SVPR,≤ 0.25
2,DAES,≤ 0.25
3,DKTM,≤ 0.25
4,KPCK,≤ 0.25
5,FGKC,≤ 0.25
6,CCND,≤ 0.25
7,SQLT,11
8,SDCY,0.717
9,REIC,≤ 0.25
10,FGPN,≤ 0.25
11,ALMN,≤ 0.25
12,MIVM,2.94
13,TEMI,51.6
14,NWSM,≤ 0.25
15,TFPN,≤ 0.25
16,RFCW,≤ 0.25
17,MFHY,≤ 0.25
18,VPYN,≤ 0.25
19,SQGQ,3.68
20,PLMI,≤ 0.25
21,QYPS,≤ 0.25
22,QHLK,≤ 0.25
23,TKRI,≤ 0.25
24,TPDE,≤ 0.25
25,PTAD,≤ 0.25
26,FMKS,≤ 0.25

row,Variant,enrichment ratio
1,VCLN,2.29
2,NRTY,≤ 0.25
3,TTVQ,5.74
4,SPFM,≤ 0.25
5,HEET,≤ 0.25
6,SVHQ,≤ 0.25
7,GKFM,≤ 0.25
8,HMVG,≤ 0.25
9,GMRP,≤ 0.25
10,NNAL,0.34
11,PAYA,≤ 0.25
12,FIYQ,≤ 0.25
13,LRII,≤ 0.25
14,DWAA,≤ 0.25
15,MFIY,≤ 0.25
16,ICAT,≤ 0.25
17,GQRI,≤ 0.25
18,PICA,≤ 0.25
19,CFND,≤ 0.25
20,RAWR,≤ 0.25
21,FQFT,≤ 0.25
22,RADE,≤ 0.25
23,DHHQ,≤ 0.25
24,RIIF,≤ 0.25
25,RMCE,≤ 0.25
